Results: the supplement of paper PMC12217912
The list shows a part of the results. Sequences were assembled here from the parent chain. Inactive controls read about 0.05.

B1: TEV protease; numbered along this chain (parent)
chain: MGESLFKGPRDYNPISSSICHLTNESDGHTTSLYGIGFGPFIITNKHLFRRNNGTLVVQSLHGVFKVKDTTTLQQHLVDGRDMIIIRMPKDFPPFPQKLKFREPQREERICLVTTNFQTKSMSSMVSDTSCTFPSGDGIFWKHWIQTKDGQCGSPLVSTRDGFIVGIHSASNFTNTNNYFTSVPKNFMELLTNQEAQQWVSGWRLNADSVLWGGHKVFMVKPEEPFQPVKEATQL

Variants of: B1
Experiment: raw area under fraction-flipped curve 0-4 h after induction (AUC4h, not background-subtracted), DNA-recorder readout of cleavage of the substrate (dimensionless); higher = more cleavage of the substrate by the protease variant
Details: temperature: 34 °C; time window: 0-4 h after rhamnose induction
Experimental: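 In vivo DNA recorder in E. coli TOP10(DE3) ΔrhaA at 34 °C. Each TEVp single-site mutant (parent TEVp 0) is paired with a single-site variant of the 7-mer TEVs (canonical ENLYFQ|S). The substrate sits between flexible linkers in a Bxb1-sfGFP-TEVs-SsrA fusion, so cleavage stabilises Bxb1 and speeds flipping of a recombination array, read by NGS. The value is the raw area under the fraction-flipped curve over 0-4 h after rhamnose induction (AUC4h), with ≥20 reads per time point. It is not background-subtracted; inactive controls average about 0.047.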
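Note: Bxb1 expression induced with 0.2% (w/v) L-rhamnose at OD600 near 0.5, cultures sampled hourly, flipped fraction per protease–substrate barcode pair counted by paired-end Illumina sequencing.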

Variant	area with substrate ENLYFAS	area with substrate ENLYFCS	area with substrate ENLYFES	area with substrate ENLYFFS	area with substrate ENLYFHS	area with substrate ENLYFIS	area with substrate ENLYFKS	area with substrate ENLYFMS	area with substrate ENLYFNS	area with substrate ENLYFPS	area with substrate ENLYFRS	area with substrate ENLYFSS	area with substrate ENLYFTS	area with substrate ENLYFLS	area with substrate ENLYFVS	area with substrate ENLYFDS	area with substrate ENLYFWS	area with substrate ENLYFYS	area with substrate ENLYFGS
T72W	0.0553	0.0567	0.041	0.0804	0.0662	0.0518	0.0666	0.0681	0.0673	0.0663	0.0543	0.0539	0.0635						
E107D	0.061	0.066	0.0664	0.0754	0.061	0.0677			0.0646	0.0567			0.0596	0.0632	0.0438				
G2W	0.0573	0.0521						0.0783	0.0415	0.0601	0.0519					0.0528			
E107V	0.0529	0.0235		0.0804	0.0667	0.068	0.0804		0.0674	0.0595		0.0618	0.0607				0.0588	0.0595	
W141D	0.0422	0.0478	0.061	0.0628	0.058	0.0381		0.0528	0.0541	0.0534	0.0495	0.0666		0.0581				0.0359	0.0475
N53K	0.0562	0.0634	0.0635	0.0591	0.0438	0.0599		0.0509		0.0562		0.0524	0.0607		0.0559	0.0397		0.056	
V57P	0.0415		0.0505			0.0475		0.0374	0.0815	0.0402		0.038			0.0301		0.0734	0.0372	
H76Y	0.0572	0.0466		0.0525	0.0703	0.0434	0.0839	0.0594		0.073		0.0541	0.0419		0.0483				0.0578
A170P	0.0643			0.0579		0.0396				0.0864	0.0681	0.0624				0.052			
F218C	0.057		0.0591			0.0558	0.0664		0.0593	0.0625			0.0602						
T119K	0.0219	0.0634	0.0887	0.0354		0.053			0.0473	0.062	0.0662	0.0607		0.0633					
W203H	0.0644		0.0525	0.0717	0.0357	0.0559		0.0552	0.0496	0.0519	0.0627	0.0599		0.0649	0.0546	0.0477	0.0563	0.0605	0.0654
S158C	0.066	0.0661	0.0653		0.0635					0.0541		0.064		0.0633	0.0484	0.0516	0.0721	0.0642	
S127R	0.0342	0.0534	0.0746		0.0537	0.0595	0.0417		0.0762			0.0512	0.0517	0.0609			0.0552	0.0606	
G37D	0.0468	0.0515	0.0401			0.0473		0.0302	0.0448	0.0536	0.0511		0.0419			0.0497	0.0527	0.0434	
